{
  "source": "PubChem BioAssay (NCATS)",
  "key": {"[1]": {"experiment": "qHTS Assay for Identification of Small Molecule Agonists for Hypoxia Response Element Signaling Pathway (AID 914; active = well fitted activation curve with a large enough effect in the signal ratio, with a control signal flat, not every such curve was filed as active; inconclusive = small, poorly fitted or top-dose-only effect, or effect the other way, or a change in a side signal; the % refers to the signal ratio; for activation: top concentration of the series differs between compounds; % of control where 0% means no effect)", "details": "ME-180 HRE-bla reporter, beta-lactamase ratio, CoCl2, 17 h; activation: active compounds read high", "procedure,_shortened": "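Compounds in a titration series were added to ME-180 reporter cells alongside an EC50 level of CoCl2. After 17 hours, beta-lactamase activity was read as the 460nm/530nm emission ratio of CCF4, giving AC50 values.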"}, "[2]": {"biological_target": "Dual specificity protein kinase CLK4 (Homo sapiens) (UniProt Q9HAZ1)", "sequence (Q9HAZ1 whole entry, looked up)": "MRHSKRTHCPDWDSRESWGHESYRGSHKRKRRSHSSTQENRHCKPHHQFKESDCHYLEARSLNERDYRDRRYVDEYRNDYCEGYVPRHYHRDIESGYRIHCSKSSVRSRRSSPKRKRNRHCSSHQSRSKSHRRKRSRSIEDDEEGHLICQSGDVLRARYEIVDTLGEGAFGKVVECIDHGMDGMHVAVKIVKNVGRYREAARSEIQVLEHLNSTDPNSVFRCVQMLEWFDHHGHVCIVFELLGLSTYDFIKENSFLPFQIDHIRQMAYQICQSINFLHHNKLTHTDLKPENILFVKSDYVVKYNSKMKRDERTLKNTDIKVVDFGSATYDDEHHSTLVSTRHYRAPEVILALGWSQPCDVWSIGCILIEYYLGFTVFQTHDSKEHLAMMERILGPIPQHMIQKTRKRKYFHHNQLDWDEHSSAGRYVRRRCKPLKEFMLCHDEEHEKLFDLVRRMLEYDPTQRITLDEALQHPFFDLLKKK", "experiment": "qHTS Assay for Inhibitors of CDC-like Kinase 4 (ADP-Glo Assay) (AID 1771); note: nearly all actives have a fitted effect of over 70% in size", "procedure,_shortened": "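Clk4 (25 nM) was incubated 1 hr at room temperature with 100 uM RS repeat peptide and 1 uM ATP in buffer with 2 mM MgCl2, 0.5 mM EGTA, 2.5 mM DTT. ADP formed was quantified by ADP-Glo luminescence.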"}, "[3]": {"biological_target": "3',5'-cyclic-AMP phosphodiesterase 4B (Homo sapiens) (UniProt Q07343)", "sequence (Q07343 whole entry, looked up)": "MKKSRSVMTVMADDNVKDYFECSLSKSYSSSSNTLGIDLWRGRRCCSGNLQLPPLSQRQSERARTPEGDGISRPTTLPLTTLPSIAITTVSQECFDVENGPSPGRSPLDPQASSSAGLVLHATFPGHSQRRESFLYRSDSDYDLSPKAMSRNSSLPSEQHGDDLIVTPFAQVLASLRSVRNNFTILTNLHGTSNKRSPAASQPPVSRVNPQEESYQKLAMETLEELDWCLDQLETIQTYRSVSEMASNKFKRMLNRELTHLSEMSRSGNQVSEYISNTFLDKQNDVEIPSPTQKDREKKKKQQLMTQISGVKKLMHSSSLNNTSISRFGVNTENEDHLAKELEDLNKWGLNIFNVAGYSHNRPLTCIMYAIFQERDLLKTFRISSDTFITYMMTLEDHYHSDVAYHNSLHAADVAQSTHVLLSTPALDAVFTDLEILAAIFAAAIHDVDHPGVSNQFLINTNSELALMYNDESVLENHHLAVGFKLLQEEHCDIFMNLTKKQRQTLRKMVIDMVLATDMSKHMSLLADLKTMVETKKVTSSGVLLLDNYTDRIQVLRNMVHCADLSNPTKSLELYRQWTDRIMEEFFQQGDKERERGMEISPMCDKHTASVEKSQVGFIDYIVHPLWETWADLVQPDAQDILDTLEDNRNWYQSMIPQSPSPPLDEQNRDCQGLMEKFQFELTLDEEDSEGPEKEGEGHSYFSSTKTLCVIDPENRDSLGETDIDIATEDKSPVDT", "experiment": "qHTS Assay for Inhibitors of PDE-IV (AID 607; active = well fitted activation curve with a large enough effect in the main read-out, with a control signal flat, not every such curve was filed as active; inconclusive = small, poorly fitted or top-dose-only effect, or effect the other way, or a change in a side signal)", "details": "HEK293 ACTOne CNG channel cells, membrane potential fluorescence; activation (PDE inhibition): at 22.9 µM (top of the series)", "procedure,_shortened": "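ACTOne HEK293 cells carry a modified cAMP-gated CNG channel and express endogenous PDE4; plated 1000 cells/well, compounds up to 22.9 uM final. Membrane-potential dye fluorescence (ex 535/em 590) was read; parental cells received 10 uM forskolin + 100 uM RO 20-1724.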"}, "[4]": {"experiment": "HepG2 viability counterscreen (readout 1: protease activity) against the NCATS DSHEA and TCM libraries (AID 1794841);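 note: cells exposed to compounds for about 24 h before the protease read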", "procedure,_shortened": "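HepG2 cells (1,000 cells/well) attached ~4 h, then treated ~24 h at 37C with substances. Protease activity read by GF-AFC (25 uM final, 30 min, Ex/Em 380/510 nm); ATP content then by CellTiter-Glo luminescence.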"}, "[5]": {"biological_target": "Cytochrome P450 2C19 (Homo sapiens) (UniProt P33261)", "sequence (P33261 whole entry, looked up)": "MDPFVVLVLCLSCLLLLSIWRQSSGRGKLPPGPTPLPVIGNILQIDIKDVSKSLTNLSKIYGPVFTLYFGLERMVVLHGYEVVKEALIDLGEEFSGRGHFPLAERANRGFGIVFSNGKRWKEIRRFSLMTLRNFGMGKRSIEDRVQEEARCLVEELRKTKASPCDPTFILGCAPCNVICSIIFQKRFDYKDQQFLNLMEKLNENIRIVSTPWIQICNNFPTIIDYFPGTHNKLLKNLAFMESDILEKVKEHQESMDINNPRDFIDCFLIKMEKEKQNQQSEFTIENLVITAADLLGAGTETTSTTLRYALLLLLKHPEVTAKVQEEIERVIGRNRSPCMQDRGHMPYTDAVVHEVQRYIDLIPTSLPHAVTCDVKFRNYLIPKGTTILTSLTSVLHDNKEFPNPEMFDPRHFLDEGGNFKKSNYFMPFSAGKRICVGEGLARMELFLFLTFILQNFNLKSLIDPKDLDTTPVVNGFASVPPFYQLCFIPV", "experiment": "qHTS for inhibitors of CYP2C19 against the NCATS DSHEA and TCM libraries (AID 1919974)", "procedure,_shortened": "(§1)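 Luminescent P450-Glo readout. Enzyme plus pro-luciferin substrate in manufacturer buffer (typically 100 mM KPO4); 15 min RT preincubation; 1x NADPH regenerating system, 30-45 min RT in the dark; detection reagent 30 min.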"}, "[6]": {"biological_target": "Nuclear receptor subfamily 1 group I member 2 (Homo sapiens) (UniProt O75469)", "sequence (O75469 whole entry, looked up)": "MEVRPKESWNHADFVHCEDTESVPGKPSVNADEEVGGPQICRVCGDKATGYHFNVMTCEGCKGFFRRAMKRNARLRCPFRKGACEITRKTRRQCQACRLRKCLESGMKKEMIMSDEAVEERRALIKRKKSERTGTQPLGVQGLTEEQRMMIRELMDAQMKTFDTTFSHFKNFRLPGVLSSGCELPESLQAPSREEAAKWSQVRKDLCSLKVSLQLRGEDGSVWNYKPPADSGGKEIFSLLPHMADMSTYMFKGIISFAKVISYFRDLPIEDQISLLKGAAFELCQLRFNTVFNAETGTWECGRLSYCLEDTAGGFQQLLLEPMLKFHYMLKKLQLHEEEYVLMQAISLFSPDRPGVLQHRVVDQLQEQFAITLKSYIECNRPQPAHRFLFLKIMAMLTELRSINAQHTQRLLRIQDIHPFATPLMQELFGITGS", "experiment": "Dual reporter qHTS for agonist of Pregnane X Receptor (hPXR) against the NCATS DSHEA and TCM libraries: Luminescence readout (AID 1920059)", "procedure,_shortened": "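hPXR-LucHepG2 cells in phenol red-free DMEM with 5% charcoal-stripped FBS, 2000 cells/well, attached 5 h, then exposed 24 h at 37C to compounds; rifampicin as positive agonist control (2.8 nM–92 uM). Luciferase luminescence read.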"}, "[7]": {"experiment": "Viability counterscreen for antagonist of constitutive androstane receptor (CAR) against the NCATS DSHEA and TCM libraries (AID 1794837)", "procedure,_shortened": "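HepG2-CYP2B6-hCAR cells (2,500/well) were allowed to attach for 5 h, then exposed to compounds with 48 uM CITCO for 24 h at 37C. Viability was read by CellTiter-Fluor fluorescence after 1 h.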"}, "[8]": {"biological_target": "Nuclear receptor subfamily 1 group I member 3 (Homo sapiens) (UniProt Q14994)", "sequence (Q14994 whole entry, looked up)": "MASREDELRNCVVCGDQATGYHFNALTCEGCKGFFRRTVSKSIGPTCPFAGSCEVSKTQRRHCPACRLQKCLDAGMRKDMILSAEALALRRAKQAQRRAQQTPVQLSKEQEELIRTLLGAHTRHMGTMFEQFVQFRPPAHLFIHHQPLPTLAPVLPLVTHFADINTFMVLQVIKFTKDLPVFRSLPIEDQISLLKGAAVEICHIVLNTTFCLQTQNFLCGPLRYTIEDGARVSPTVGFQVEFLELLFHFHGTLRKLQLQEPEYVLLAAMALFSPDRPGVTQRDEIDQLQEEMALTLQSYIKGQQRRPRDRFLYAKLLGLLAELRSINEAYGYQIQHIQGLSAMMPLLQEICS", "experiment": "Primary qHTS for agonist of constitutive androstane receptor (CAR) against the NCATS DSHEA and TCM libraries (AID 1794839)", "procedure,_shortened": "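HepG2-CYP2B6-hCAR cells (2,500/well) were attached for 5 h, then treated for 24 h at 37 °C with compounds plus 0.75 µM PK11195. Luciferase luminescence (ONE-Glo) was read, with CellTiter-Fluor viability (Ex/Em 405/540 nm).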"}, "[9]": {"experiment": "KB-8-5-11 P-gp reporter qHTS against the NCATS DSHEA and TCM libraries (AID 1919977)", "procedure,_shortened": "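P-gp-overexpressing KB-8-5-11 cells (500/well) were plated in colchicine-free DMEM with 10% FBS, attached ~4 h, then exposed to substance titrations for ~72 h at 37C. Viability was read by CellTiter-Glo luminescence.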"}, "[10]": {"experiment": "Dual reporter qHTS for antagonist of Pregnane X Receptor (hPXR) against the NCATS DSHEA and TCM libraries: Fluorescence Readout (AID 1920061)", "procedure,_shortened": "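Antagonist mode: rifampicin 2 uM final co-added with compounds to hPXR-LucHepG2 cells for 24 h at 37C. Viability by CellTiter-Fluor, Ex/Em 405/540 nm, 1 h; reporter by ONE-Glo luminescence.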"}, "[11]": {"biological_target": "Cytochrome P450 2C9 (Homo sapiens) (UniProt P11712)", "sequence (P11712 whole entry, looked up)": "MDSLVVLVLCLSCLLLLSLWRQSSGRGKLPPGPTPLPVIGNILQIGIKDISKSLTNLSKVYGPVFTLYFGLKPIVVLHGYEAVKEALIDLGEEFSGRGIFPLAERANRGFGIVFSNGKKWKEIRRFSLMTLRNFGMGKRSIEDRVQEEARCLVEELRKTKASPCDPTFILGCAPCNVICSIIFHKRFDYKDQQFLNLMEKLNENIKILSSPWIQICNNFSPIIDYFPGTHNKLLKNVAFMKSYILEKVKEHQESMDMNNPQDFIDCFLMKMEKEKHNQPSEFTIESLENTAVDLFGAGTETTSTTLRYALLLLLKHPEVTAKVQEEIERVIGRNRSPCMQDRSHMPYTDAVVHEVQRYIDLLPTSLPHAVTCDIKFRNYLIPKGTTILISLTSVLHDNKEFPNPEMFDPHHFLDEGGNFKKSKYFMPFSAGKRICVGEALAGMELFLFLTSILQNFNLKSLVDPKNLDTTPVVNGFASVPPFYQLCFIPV", "experiment": "qHTS for inhibitors of CYP2C9 against the NCATS DSHEA and TCM libraries (AID 1919973)", "procedure,_shortened": "as §1"}, "[12]": {"biological_target": "Cytochrome P450 1A2 (Homo sapiens) (UniProt P05177)", "sequence (P05177 whole entry, looked up)": "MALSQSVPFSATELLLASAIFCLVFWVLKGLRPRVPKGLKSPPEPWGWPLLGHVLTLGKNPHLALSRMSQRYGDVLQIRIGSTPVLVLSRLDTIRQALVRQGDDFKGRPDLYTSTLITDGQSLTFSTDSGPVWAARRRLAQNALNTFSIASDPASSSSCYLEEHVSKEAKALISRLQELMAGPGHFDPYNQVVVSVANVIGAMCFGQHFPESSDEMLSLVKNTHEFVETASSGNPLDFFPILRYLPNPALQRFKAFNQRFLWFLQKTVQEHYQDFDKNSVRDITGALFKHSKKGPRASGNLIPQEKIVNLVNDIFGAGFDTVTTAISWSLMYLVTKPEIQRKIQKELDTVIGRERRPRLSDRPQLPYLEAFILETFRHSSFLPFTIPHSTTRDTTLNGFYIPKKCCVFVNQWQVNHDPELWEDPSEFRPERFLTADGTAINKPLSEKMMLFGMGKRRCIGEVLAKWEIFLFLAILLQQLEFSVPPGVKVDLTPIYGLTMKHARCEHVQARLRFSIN", "experiment": "qHTS for inhibitors of CYPIA2 against the NCATS DSHEA and TCM libraries (AID 1919976)", "procedure,_shortened": "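Human CYP1A2 with its pro-luciferin substrate in supplier buffer (typically 100 mM KPO4) was pre-incubated with compounds 15 min at RT. Reaction was started with 1x NADPH regeneration solution and run 30-45 min at RT in the dark, then luminescence was read after P450-Glo detection reagent (30 min RT).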"}, "[13]": {"biological_target": "Cytochrome P450 2D6 (Homo sapiens) (UniProt P10635)", "sequence (P10635 whole entry, looked up)": "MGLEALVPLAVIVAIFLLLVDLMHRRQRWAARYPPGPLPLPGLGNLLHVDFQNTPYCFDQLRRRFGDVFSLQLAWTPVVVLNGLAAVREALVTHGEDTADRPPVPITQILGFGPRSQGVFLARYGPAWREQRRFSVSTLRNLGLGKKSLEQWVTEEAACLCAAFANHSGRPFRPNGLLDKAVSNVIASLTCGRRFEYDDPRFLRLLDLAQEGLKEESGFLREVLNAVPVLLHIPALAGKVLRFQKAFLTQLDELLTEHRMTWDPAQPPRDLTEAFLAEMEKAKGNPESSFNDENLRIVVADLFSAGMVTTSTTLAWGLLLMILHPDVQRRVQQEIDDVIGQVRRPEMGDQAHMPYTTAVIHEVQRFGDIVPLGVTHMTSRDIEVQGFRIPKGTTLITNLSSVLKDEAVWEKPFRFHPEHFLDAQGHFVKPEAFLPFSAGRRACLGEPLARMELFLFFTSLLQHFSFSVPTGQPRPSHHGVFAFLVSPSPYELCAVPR", "experiment": "qHTS for inhibitors of CYP2D6 against the NCATS DSHEA and TCM libraries (AID 1919972)", "procedure,_shortened": "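Steps: enzyme plus luciferin substrate dispensed; test substances pinned; 15 min RT; 1x NADPH regenerating solution added, 30–45 min RT protected from light; detection reagent, 30 min RT; luminescence measured. Minus-enzyme wells as background.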"}},
  "note": "This list was built around the results that the source calls inconclusive (neither active nor inactive); the mix of calls is not that of the screen. For some assays here: Potencies beside an inconclusive call are fits to weak or partial responses and may not hold up. Activity calls are given as the source filed them. Unless noted, calls come from the whole dose curve; as a rule, active = well fitted curve in the direction sought with a large enough effect; inconclusive = small, poorly fitted or top-dose-only effect, or another doubt; inactive = no such curve, though single readings can be large; an effect the other way counts as inactive or inconclusive. Potency is the fitted concentration of half-maximal effect; tags give direction and shape of the fitted curve or compound fluorescence and quenching.",
  "data": [
    {"smiles": "COc1ccccc1CNc1ccnc(-c2ccc(C(=O)N(C)C)cc2)n1", "values": [
      {"measurement": "activation", "setting": "[1]", "result": "inconclusive: -32.7%"},
      {"measurement": "Potency", "setting": "[2]", "result": "inactive"}
    ]},
    {"smiles": "c1ccc(CNc2cc(-c3cccnc3)ncn2)cc1", "values": [
      {"measurement": "Potency", "setting": "[3]", "result": "inconclusive: 6.31 µM [activator, partial curve]"},
      {"measurement": "activation", "setting": "[1]", "result": "inconclusive: 30.6%"},
      {"measurement": "Potency", "setting": "[2]", "result": "active: 4.47 µM"}
    ]},
    {"smiles": "C=C1C[C@@]23CC[C@H]4[C@@](C)(CCC[C@@]4(C)C(=O)O[C@@H]4O[C@H](CO)[C@@H](O)[C@H](O)[C@H]4O[C@@H]4O[C@H](CO)[C@@H](O)[C@H](O)[C@H]4O)[C@@H]2CC[C@]1(O[C@@H]1O[C@H](CO)[C@@H](O)[C@H](O)[C@H]1O[C@@H]1O[C@H](CO)[C@@H](O)[C@H](O)[C@H]1O)C3", "values": [
      {"measurement": "Potency", "setting": "[4]", "result": "inconclusive: 2.24 µM [inhibitor, full curve, poor fit]"},
      {"measurement": "Potency", "setting": "[5]", "result": "inactive"},
      {"measurement": "Potency", "setting": "[6]", "result": "inactive"}
    ]},
    {"smiles": "Cc1ccc(O)c(O)c1", "values": [
      {"measurement": "Potency", "setting": "[7]", "result": "inconclusive: 79.4 µM [cytotoxic, partial curve, poor fit]"},
      {"measurement": "Potency", "setting": "[8]", "result": "inconclusive: 70.8 µM [activator, single point]"},
      {"measurement": "Potency", "setting": "[9]", "result": "inconclusive: 39.8 µM [inhibitor, single point]"},
      {"measurement": "Potency", "setting": "[6]", "result": "active: 50.1 µM"},
      {"measurement": "Potency", "setting": "[10]", "result": "inconclusive: 70.8 µM [inhibitor, single point]"}
    ]},
    {"smiles": "C=C(C)[C@H]1CC=C(CO)CC1", "values": [
      {"measurement": "Potency", "setting": "[8]", "result": "inconclusive: 4.47 µM [activator, full curve]"},
      {"measurement": "Potency", "setting": "[11]", "result": "inconclusive: 17.8 µM [inhibitor, partial curve]"},
      {"measurement": "Potency", "setting": "[5]", "result": "active: 12.6 µM"},
      {"measurement": "Potency", "setting": "[12]", "result": "inconclusive: 3.55 µM [inhibitor, full curve]"},
      {"measurement": "Potency", "setting": "[6]", "result": "inactive"}
    ]},
    {"smiles": "O=c1cnc2cnc(Oc3cccc(Cl)c3)nc2n1C[C@H]1CCCO1", "values": [
      {"measurement": "Potency", "setting": "[1]", "result": "inconclusive: 2 µM [inhibitor, partial curve]"},
      {"measurement": "Potency", "setting": "[2]", "result": "inactive"}
    ]},
    {"smiles": "CC1=C2[C@H]([C@@H](C)CC[C@@H]2/C=C(\\C)C(=O)O)[C@@H](O)C1", "values": [
      {"measurement": "Potency", "setting": "[8]", "result": "inconclusive: 3.98 µM [activator, full curve, poor fit]"},
      {"measurement": "Potency", "setting": "[13]", "result": "inconclusive: 14.1 µM [inhibitor, single point]"},
      {"measurement": "Potency", "setting": "[11]", "result": "inconclusive: 12.6 µM [inhibitor, partial curve, poor fit]"},
      {"measurement": "Potency", "setting": "[5]", "result": "inconclusive: 3.55 µM [inhibitor, full curve, poor fit]"},
      {"measurement": "Potency", "setting": "[12]", "result": "inconclusive: 3.55 µM [inhibitor, full curve]"},
      {"measurement": "Potency", "setting": "[6]", "result": "inconclusive: 14.1 µM [activator, single point]"}
    ]}
  ]
}
